Data taken from patent US20210388043A1 (published 2021).

B1: SIRPα-Fc (Fc fusion)
chain: SCAWSGVAGEE[left out - about 120 residues]KPSAPVVSGPAARATPQHTVSFTCESHGFSPRDITLKWFKNGNELSDFQTNVDPVGESVSYSIHSTAKVVLTREDVHSQVICEVAHVTLQGDPLRGTANLSETIRVPPTLEVTQQPVRAENQVNVTCQVRKFYPQRLQLTWLENGNVSRTETASTVTENKDGTYNWMSWLLVNVSAHRDDVKLTCQVEHDGQPAVSKSHDLKVSAHPKEQGSNTAAENTGSNERNEF[left out - human IgG1 Fc]
B2: SIRPαD1-Fc (Fc fusion)
chain: not shown

Columns and labels:
CD47 [1] = molecular target: T1, CD47 (human, UniProt Q08722); experiment: blocking of FITC-SIRPα-Fc binding to cells; Jurkat cells
CD47 [2] = molecular target: T1, CD47; experiment: cell binding (FACS); PC-3 cells

Row | Binder | IC50 (CD47 [1]) [nM] | EC50 (CD47 [2]) [µg/mL]
1 | B1 | 30 | 1.64
2 | B2 | 26.1 | 
